Measurements from PMC8329197, “Compounds targeting OSBPL7 increase ABCA1-dependent cholesterol efflux preserving kidney function in two models of kidney disease” (Nature Communications, 2021).

Experiments:
OSBPL7 = test system: T1, OSBPL7; assay: Competition with ^3H-Cpd K UV cross-linking to FLAG-tagged OSBPL7 in HEK293 cells (immunoprecipitation, autoradiography); assay type: binding, human; set-up: OSBPL7 Competition %: dose or concentration left out as unconfirmed; details: average(SEM)
T1 construct: Plasmids expressing each as a full-length protein with a C-terminal FLAG tag were obtained; expressed in transfected cells; host or cells: HEK293
Method: Briefly, a plasmid expressing a candidate target of interest fused with a FLAG tag was transfected into HEK293 cells. After 24 h, tritiated compound K at a concentration capable of inducing ABCA1-mediated cholesterol efflux (1.0 μM) was added for 3 h, then the live cells were exposed to UV-light (ʎ = 336 nm) to query potential compound/target cross-linking in situ. Cell lysates were prepared, the expressed protein was then selectively immunoprecipitated using an anti-FLAG antibody coupled to sepharose beads, bound proteins were separated by SDS-PAGE, and two identical blots were prepared and probed by western blot and by autoradiography to detect protein expression and presence or absence of compound crosslinking, respectively. The flow chart of this screen is illustrated in Fig. 2. Figure 2d illustrates the ability of Cpd A and Cpd G to displace tritiated Cpd K from overexpressed and immunoprecipitated OSBPL7. Figure 3b illustrates the use of this assay to detect binding of tritiated Cpd K to overexpressed and immunoprecipitated variants of OSBPL7 containing point mutations in the predicted oxysterol binging pocket of OSBPL7. […]

Col4a3 KO mice = assay: Alport syndrome model: ACR, serum creatinine, BUN, body weight (also vs ramipril); details: Col4A3 KO, age 8 weeks, Cpd G 100 mg/Kg/day 28 days
human THP1 macrophages = assay: apoAI-mediated (ABCA1) cholesterol efflux from cholesterol-loaded THP1 macrophages; assay type: cell-based; set-up: ABCA1 Efflux %: dose or concentration left out as unconfirmed
[1] = 5 µM, THP1 cells, single experiments

**Q.** What does the source list for `O=C(N[C@@H]1CCCC[C@H]1O)c1cnc(OCC(F)(F)F)c(-c2ccc(Cl)c(Cl)c2)c1` [Cpd G]?
**A.** OSBPL7 Competition % (OSBPL7): 78(6.1) %; ACR values (mg Albumin / mg Creatinine), Median (Col4a3 KO mice): 4.895 mg Albumin / mg Creatinine; ApoA1-mediated Cholesterol Efflux (Fold increase over vehicle control), mean (human THP1 macrophages; 5 µM, THP1 cells, mean of 3): 1.952 fold; ApoA1-mediated Cholesterol Efflux (%) (human THP1 macrophages; [1]): 7.42% and 3.8% and 3.1%; ApoA1-mediated Cholesterol Efflux (Fold increase over vehicle control) (human THP1 macrophages; [1]): 2.587 fold and 1.569 fold and 1.699 fold; ABCA1 Efflux % (human THP1 macrophages; average(SEM)): 99(7.7) %

Where “and” joins values, the source holds several entries; their conditions need not be identical. Equal values may be shown once.
